Data reported in article PMC4336329 (PLoS ONE, 2015).
The campaign covered roughly 310,000 compounds. About 14,000 (4.5%) showed an effect of 50% or more. Effects have a minus sign here. The list shows a part of the results.
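Also: peak tail current of the secondary pulse compared with the same well before compound.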

These compounds were tested against human ether-à-go-go-related gene (hERG) potassium channel (human, UniProt Q12809) (assay: primary screen, population patch clamp on CHO cells stably expressing hERG).
Sequence of human ether-à-go-go-related gene (hERG) potassium channel (Q12809 whole entry, looked up): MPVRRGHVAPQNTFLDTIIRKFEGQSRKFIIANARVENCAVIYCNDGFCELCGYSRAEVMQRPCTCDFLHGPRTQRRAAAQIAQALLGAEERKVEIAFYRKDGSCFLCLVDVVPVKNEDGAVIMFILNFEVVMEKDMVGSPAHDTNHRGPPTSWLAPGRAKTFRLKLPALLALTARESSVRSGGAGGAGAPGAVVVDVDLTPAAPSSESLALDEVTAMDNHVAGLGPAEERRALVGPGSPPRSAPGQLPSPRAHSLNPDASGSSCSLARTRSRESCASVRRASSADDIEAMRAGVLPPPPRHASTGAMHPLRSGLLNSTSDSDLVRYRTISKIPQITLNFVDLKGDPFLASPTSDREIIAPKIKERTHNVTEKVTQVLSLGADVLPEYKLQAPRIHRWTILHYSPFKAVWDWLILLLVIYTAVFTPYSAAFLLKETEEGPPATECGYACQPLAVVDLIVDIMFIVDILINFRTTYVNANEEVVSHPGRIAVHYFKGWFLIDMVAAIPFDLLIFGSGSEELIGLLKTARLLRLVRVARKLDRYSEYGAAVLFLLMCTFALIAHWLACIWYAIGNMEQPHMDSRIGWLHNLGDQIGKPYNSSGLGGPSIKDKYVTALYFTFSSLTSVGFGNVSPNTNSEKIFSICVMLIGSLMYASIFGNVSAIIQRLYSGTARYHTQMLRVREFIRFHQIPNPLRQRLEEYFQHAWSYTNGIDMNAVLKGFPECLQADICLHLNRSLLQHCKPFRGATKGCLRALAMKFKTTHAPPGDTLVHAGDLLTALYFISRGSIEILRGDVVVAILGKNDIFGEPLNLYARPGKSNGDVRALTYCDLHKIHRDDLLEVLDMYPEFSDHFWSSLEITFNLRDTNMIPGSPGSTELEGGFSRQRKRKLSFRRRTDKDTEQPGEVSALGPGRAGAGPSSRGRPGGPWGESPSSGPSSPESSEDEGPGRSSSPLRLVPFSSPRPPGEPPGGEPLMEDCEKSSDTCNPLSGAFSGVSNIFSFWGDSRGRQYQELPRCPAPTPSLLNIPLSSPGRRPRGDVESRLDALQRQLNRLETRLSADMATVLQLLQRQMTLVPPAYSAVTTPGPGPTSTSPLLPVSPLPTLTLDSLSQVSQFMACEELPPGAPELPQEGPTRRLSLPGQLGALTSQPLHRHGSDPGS
With C[n+]1cccc(C(=O)NCC2CCCO2)c1.[I-] (stereo not drawn) the “hERG current change (%, negative = inhibition) at 10uM” value was 18.1%. CN(C)CCCNS(=O)(=O)c1ccc(NC2CCCCCC2)c([N+](=O)[O-])c1 was tested, and the “hERG current change (%, negative = inhibition) at 10uM” value was -21.1%. For O=C(Nc1cccnc1)c1cc2nc(C3CC3)cc(C(F)(F)F)n2n1, the “hERG current change (%, negative = inhibition) at 10uM” value was -14%. With COc1cccc(NC(=O)CCNC(=O)C2CCN(S(=O)(=O)c3ccc(F)cc3)CC2)c1 the “hERG current change (%, negative = inhibition) at 10uM” value was 13%. With O=C(CSC1=NS(=O)(=O)c2cc(Cl)ccc2N1)Nc1cccc(F)c1 the “hERG current change (%, negative = inhibition) at 10uM” value was -1.16%. For CCOC(=O)c1c(N)n[nH]c1-c1ccccc1, the “hERG current change (%, negative = inhibition) at 10uM” value was 10.3%. For COc1cccc(-c2cccc(NC(=O)C3CCN(C4CCOCC4)CC3)c2)c1, the “hERG current change (%, negative = inhibition) at 10uM” value was -42%. With Cc1ccc(CNC(=O)Nc2ccc(Cl)cc2)cc1 the “hERG current change (%, negative = inhibition) at 10uM” value was 19.7%. With CC(C)CCNC(=O)/C=C/c1ccc(Br)cc1 the “hERG current change (%, negative = inhibition) at 10uM” value was 0.187%. Cc1cccc(Nc2nc(N)c([N+](=O)[O-])c(NCc3ccco3)n2)c1 was tested, and the “hERG current change (%, negative = inhibition) at 10uM” value was -6.06%. With CCOc1ccc(NC(=O)COn2nnc3ccc(S(=O)(=O)N4CCOCC4)cc32)cc1 the “hERG current change (%, negative = inhibition) at 10uM” value was -21.7%. For CC(Sc1n[nH]c(N)n1)C(=O)Nc1cccc(S(=O)(=O)N2CCOCC2)c1 (stereo not drawn), the “hERG current change (%, negative = inhibition) at 10uM” value was 16%. With CC(C)C(=O)O/N=C(\N)c1ccccn1 the “hERG current change (%, negative = inhibition) at 10uM” value was 0.837%. In the case of CCN(CC)S(=O)(=O)c1cccc(-c2nnc(SC(C)C(N)=O)n2CCc2ccccc2)c1 (stereo not drawn), the “hERG current change (%, negative = inhibition) at 10uM” value is reported as -34.1%. With COc1cc2c(cc1C1NC(=S)NC(C)=C1C(=O)N(C)C)CCCC2 (stereo not drawn) the “hERG current change (%, negative = inhibition) at 10uM” value was -7.56%. CC(C)[C@H](NC(=O)c1ccco1)C(=O)OCc1cc(=O)n2c(n1)sc1ccccc12 was tested, and the “hERG current change (%, negative = inhibition) at 10uM” value was 12.3%. With COc1ccc(N(C)C(=O)c2cn(CC(C)C)c(=O)c3cc(OC)c(OC)cc23)c(OC)c1 the “hERG current change (%, negative = inhibition) at 10uM” value was 8%. For Cc1c(O)ccc(/C(Cc2ccc3ccccc3n2)=N\O)c1O, the “hERG current change (%, negative = inhibition) at 10uM” value was -1.53%. For O=C(O)COc1ccc(-c2nnn(CC(=O)O)n2)cc1, the “hERG current change (%, negative = inhibition) at 10uM” value was 6.17%. In the case of CC1CCCCN1S(=O)(=O)c1ccc([N+](=O)[O-])cc1 (stereo not drawn), the “hERG current change (%, negative = inhibition) at 10uM” value is reported as -4.19%. With Fc1cccc(CSc2nnc3ccc(-c4ccncc4)nn23)c1 the “hERG current change (%, negative = inhibition) at 10uM” value was -60.4%. In the case of O=C(Nc1ccc(S(=O)(=O)NC2CCCCC2)cc1)c1ccco1, the “hERG current change (%, negative = inhibition) at 10uM” value is reported as 2.08%. With O=C1CC(c2ccc(O)cc2)Oc2cc(O)cc(O)c21 (stereo not drawn) the “hERG current change (%, negative = inhibition) at 10uM” value was -11.2%. In the case of COc1cc2cc(CN(CCN3CCCC3)C(=O)Nc3ccccc3Cl)c(=O)[nH]c2cc1OC, the “hERG current change (%, negative = inhibition) at 10uM” value is reported as -6.16%. For CCCCS(=O)(=O)C(=C1Nc2ccccc2N1)S(=O)(=O)CCCC, the “hERG current change (%, negative = inhibition) at 10uM” value was -6.74%. In the case of O=C(Nc1ccc(C(F)(F)F)cc1)C1CC(=O)N(c2ccc3c(c2)OCCO3)C1 (stereo not drawn), the “hERG current change (%, negative = inhibition) at 10uM” value is reported as 2.35%. Cc1ccc(C)c(Nc2ccc3nonc3c2[N+](=O)[O-])c1 was tested, and the “hERG current change (%, negative = inhibition) at 10uM” value was 3.07%. With CC(C)N1CCN(Cc2coc3ccccc3c2=O)CC1CCO (stereo not drawn) the “hERG current change (%, negative = inhibition) at 10uM” value was 7.7%. With C[C@H](CCC(=O)NCC(=O)O)[C@H]1CC[C@H]2C3[C@H](O)C[C@@H]4C[C@H](O)CC[C@]4(C)[C@H]3C[C@H](O)[C@]12C (stereo partly drawn) the “hERG current change (%, negative = inhibition) at 10uM” value was 0.253%. For CC1(C)Oc2ccc(C(=O)NC3CCCC3)cc2N(CC(=O)N2CCOCC2)C1=O, the “hERG current change (%, negative = inhibition) at 10uM” value was -5.79%. For CNc1oc(/C=C/c2ccccc2)nc1C#N, the “hERG current change (%, negative = inhibition) at 10uM” value was 8.33%. CCCCOc1ccc(C(=O)O)cc1 was tested, and the “hERG current change (%, negative = inhibition) at 10uM” value was 6.53%. For Cc1ccsc1C(=O)OCC(=O)Nc1c(Cl)cccc1C(F)(F)F, the “hERG current change (%, negative = inhibition) at 10uM” value was -2.72%. In the case of CC(=O)N1Cc2ccccc2CC1C(=O)NCc1ccccc1F (stereo not drawn), the “hERG current change (%, negative = inhibition) at 10uM” value is reported as -7.43%. With O=C(Nc1ccc2c(c1)nc1n2CCOC1)c1ccco1 the “hERG current change (%, negative = inhibition) at 10uM” value was 9.79%. In the case of O=C(CCS(=O)(=O)c1cccs1)N1CCCC1, the “hERG current change (%, negative = inhibition) at 10uM” value is reported as 3.18%. For COC(=O)Cn1c(=O)c(=O)n(CC(=O)OC)c2ccccc21, the “hERG current change (%, negative = inhibition) at 10uM” value was 22.7%. In the case of CCSc1ccccc1C(=O)Nc1nncs1, the “hERG current change (%, negative = inhibition) at 10uM” value is reported as 11.6%. For Cc1ccccc1CN1CCN(S(=O)(=O)c2cccc3nsnc23)CC1, the “hERG current change (%, negative = inhibition) at 10uM” value was -4.52%. For O=C(CCCCCNC(=O)N1CCn2c1nc1ccccc12)N[C@@H](Cc1ccccc1)C(=O)O, the “hERG current change (%, negative = inhibition) at 10uM” value was -11.4%. In the case of CCS(=O)(=O)c1nc(S(=O)(=O)c2ccc(C)cc2)c(N2CC(C)CC(C)C2)s1 (stereo not drawn), the “hERG current change (%, negative = inhibition) at 10uM” value is reported as 2.19%. With CCCCSc1nc(C)c(CC(=O)OC)c(=O)[nH]1 the “hERG current change (%, negative = inhibition) at 10uM” value was 14.1%. In the case of COc1ccccc1NC(=S)N1CCN(C(c2ccccc2)c2ccccc2)CC1, the “hERG current change (%, negative = inhibition) at 10uM” value is reported as -1.35%. For CC(=O)Cc1cc(O)c2ccccc2c1OC(=O)c1ccccc1, the “hERG current change (%, negative = inhibition) at 10uM” value was 27.6%. For CC(C)Cn1c(=S)[nH]c2cc(C(=O)NCc3ccccc3F)ccc2c1=O, the “hERG current change (%, negative = inhibition) at 10uM” value was -6.21%.
